Test results published in patent US20190352411A1 (ALLIGATOR BIOSCIENCE, published 2019).

Experiments:
[1] = target: T1, human FcγRI (R&D Systems #1257-FC-050) (human, UniProt P12314 16-288); assay: Octet (BLI), antibody captured on FAB2G tips, soluble FcγR as analyte, 1:1 model
T1 construct: Soluble analyte in the Octet assay
Source text: (§1) The processed data was fitted using a 1:1 Langmuir binding model with X² as a measurement of fitting accuracy.

[2] = target: T2, human FcγRIIa (R&D Systems #1330-CD-050) (human, UniProt P12318 36-218, limits assumed); assay: as above
T2 construct: Soluble analyte in the Octet assay
T2 sequence (looked up): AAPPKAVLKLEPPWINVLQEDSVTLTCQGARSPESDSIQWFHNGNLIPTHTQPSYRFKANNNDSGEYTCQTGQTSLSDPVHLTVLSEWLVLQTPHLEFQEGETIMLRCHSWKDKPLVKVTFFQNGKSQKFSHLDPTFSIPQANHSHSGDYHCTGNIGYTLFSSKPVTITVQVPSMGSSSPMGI
Source text: as §1

[3] = target: T3, human FcγRIIb (R&D Systems #1460-CD-050) (human, UniProt P31994 46-217, limits assumed); assay: as above
T3 construct: Soluble analyte in the Octet assay
T3 sequence (looked up): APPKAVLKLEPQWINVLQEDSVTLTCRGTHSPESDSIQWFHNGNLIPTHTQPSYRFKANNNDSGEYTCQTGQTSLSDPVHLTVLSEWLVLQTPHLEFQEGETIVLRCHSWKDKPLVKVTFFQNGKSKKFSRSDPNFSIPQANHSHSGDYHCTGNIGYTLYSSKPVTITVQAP
Source text: as §1

[4] = target: T4, CD40-Fc (Ancell #504-820) (human, UniProt P25942 fragment); assay: ELISA, coated CD40-Fc
T4 construct: Coated on ELISA plates; not shown: Fc part of the commercial fusion protein; not described
Experimental: (§2) Binding to TNFR superfamily members for which ELISA methods had already been established (CD40 and OX40) was evaluated to detect potential propensity to cross react to non-target proteins.
(§3) ELISA plates (Greiner #655074) were coated with 50 μl/well of recombinant human OX40 (R&D #1493-CD), CD40-Fc (Ancell #504-820) or CD137 (R&D #838-4B) diluted to a final concentration of 0.5 μg/ml in PBS for 1 h at 37° C. or overnight at 4° C. Plates were washed with PBS+0.05% TWEEN20 (PBST), followed by block with PBST+1% bovine serum albumin (BSA). Antibody samples were prepared as serial 1/10 dilutions from 10-0.01 μg/ml in PBST+1% BSA and incubated for 1 h in room temperature, followed by detection using a horse radish peroxidase-conjugated anti-human kappa light chain antibody (AbD Serotec # STAR127P) and developed using SuperSignal ELISA Pico Chemiluminescent substrate (Pierce ThermoScientific #37069).

[5] = target: T5, recombinant human OX40 (R&D #1493-CD) (human, UniProt P43489 29-216, limits assumed); assay: ELISA, coated OX40
T5 construct: Coated on ELISA plates
T5 sequence (looked up): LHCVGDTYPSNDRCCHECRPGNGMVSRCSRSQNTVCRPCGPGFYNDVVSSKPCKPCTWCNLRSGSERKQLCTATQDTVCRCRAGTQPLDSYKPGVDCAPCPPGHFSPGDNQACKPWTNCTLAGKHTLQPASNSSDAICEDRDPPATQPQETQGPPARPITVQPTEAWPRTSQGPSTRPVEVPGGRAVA
Experimental: as §2, §3

T4 sequence (P25942 21-193 limits assumed): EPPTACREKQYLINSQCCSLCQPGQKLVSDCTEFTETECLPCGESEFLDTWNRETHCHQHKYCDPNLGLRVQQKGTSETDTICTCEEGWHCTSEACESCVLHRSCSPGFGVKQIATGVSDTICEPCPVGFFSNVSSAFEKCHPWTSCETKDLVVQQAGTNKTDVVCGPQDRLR
T1 sequence (P12314 16-288 limits assumed): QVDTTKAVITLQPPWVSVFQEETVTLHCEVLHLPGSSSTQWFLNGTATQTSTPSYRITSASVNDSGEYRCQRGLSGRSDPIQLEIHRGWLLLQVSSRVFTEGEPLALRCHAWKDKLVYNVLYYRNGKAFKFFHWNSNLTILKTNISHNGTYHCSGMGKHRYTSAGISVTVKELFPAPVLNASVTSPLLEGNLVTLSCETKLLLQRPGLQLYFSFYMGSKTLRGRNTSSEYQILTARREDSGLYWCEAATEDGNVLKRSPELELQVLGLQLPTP

B1: 2674/2675 (antibody, human IgG4 S228P, kappa)
heavy: EVQLLESGGGLVQPGGSLRLSCAASGFNFGYSYMSWVRQAPGKGLEWVSSIGSTSSHTYYADSVKGRFTISRDNSKNTLYLQMNSLRAEDTAVYYCARVYSSPGIDYWGQGTLVTVSSASTKGPSVFPLAPCSRSTSESTAALGCLVKDYFPEPVTVSWNSGALTSGVHTFPAVLQSSGLYSLSSVVTVPSSSLGTKTYTCNVDHKPSNTKVDKRV[human IgG4 Fc with S228P (EU numbers) not listed]
light: DIQMTQSPSSLSASVGDRVTITCRASQSIGSTLNWYQQKPGKAPKLLIYGASSLQSGVPSRFSGSGSGTDFTLTISSLQPEDFATYYCQQYYTWVPFTFGQGTKLEIKRTVAAPSVFIFPPSDEQLKSGTASVVCLLNNFYPREAKVQWKVDNALQSGNSQESVTEQDSKDSTYSLSSTLTLSKADYEKHKVYACEVTHQGLSSPVTKSFNRGEC
[1]
  Kd: 2.11 nM
[2]
  Kd: 1000 nM
[3]
  Kd: 779 nM
[4]
  binding result: no binding (tested: 10 µg/ml highest concentration tested)
[5]
  binding result: no binding (tested: 10 µg/ml highest concentration tested)
